Test results reported in PubChem BioAssay AID624418 (National Center for Advancing Translational Sciences (NCATS), 2012).
Where “and” joins values, the source holds several entries; their conditions need not be identical. Equal values may be shown once. Out of some 410,000 compounds screened, about 530 (0.13%) were called active. Inconclusive means that the source gave no clear call. Such entries were picked first, then a sample of the others. Calls follow the shape of the dose curve; as a rule, active = well fitted inhibition curve with a large enough effect; inconclusive = small, poorly fitted or top-dose-only effect, or another doubt; inactive = no such curve, though single readings can be large or run the other way. Potencies of inconclusive entries are doubtful fits and often do not repeat.

Assay: qHTS of GLP-1 Receptor Inverse Agonists: Cytotox Screen
Details: HEK293 cAMP-luciferase reporter cells, luminescence, 24 h; activity change, negative = inhibition: at 38.3 µM (top of the series) unless noted
Method in brief: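 Seeding density was 200 cells/uL; after overnight-length (12 h) culture, 23 nL compounds went on for 24 h at 37 °C. Readout used a luciferase detection reagent, luminescence taken after 12 min at room temperature.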
% is scaled to controls: 0 for no effect and ±100 for the full control effect; potency is read from the fitted curve at half-maximal effect.

Row | SMILES | Potency | activity change, negative = inhibition
1 | CCC1=Nc2cc(C(=O)NCCCOC)ccc2Sc2ccc(Br)cc21 | inconclusive: 0.501 µM [inhibitor, full curve, poor fit] | –
2 | Cc1ccc(SCCNC(=O)CN(c2ccccc2)S(=O)(=O)N(C)C)cc1 | – | inactive: 2.94%
3 | COCCN1CCCC(CNCc2cn(C)nc2-c2ccc(Oc3ccccc3)cc2)C1 (configuration not stated) | inconclusive: 28.2 µM [inhibitor, single point] | –
4 | CC(C)C1=NN(C(=O)c2cccnc2)C(O)(C(F)(F)F)C1 (configuration not stated) | inconclusive: 31.6 µM [inhibitor, single point] | –
5 | O=C(COC(=O)c1ccccc1NCCO)NCCC1=CCCCC1 | – | inactive: 24%
6 | Cn1nc(C(=O)NC2CCCCC2)c2c1-c1ccccc1SC2 | – | inactive: 0.245%
7 | COc1cc(Cl)c(CC(=O)c2c[nH]c3ccccc23)cc1OC | inconclusive: 10 µM [inhibitor, single point] | –
8 | COc1ccc(C2CC(c3cccs3)=NN2C(=O)CSc2nncn2C)cc1OC (configuration not stated) | inconclusive: 3.16 µM [inhibitor, partial curve, poor fit] | –
9 | COc1cc(/C=N/Nc2cccc3cccnc23)cc(OC)c1O | inconclusive: 28.2 µM [inhibitor, single point] | –
10 | CC1=C/C(=N\NC(=S)NCc2ccccc2)CC1 | inconclusive: 0.501 µM [inhibitor, partial curve, poor fit] | –
11 | O=C(Nc1ccncc1)C1CCN(S(=O)(=O)c2ccc(Cl)c(C(F)(F)F)c2)CC1 | – | inactive: -0.0851%
12 | O=C(COC(=O)c1c2c(nc3ccccc13)CCCC2)Nc1ccc2c(c1)OCO2 | inconclusive: 28.2 µM [inhibitor, single point] | –
13 | COCCNC(=S)N/N=C(\C)c1ccc(O)cc1 | inconclusive: 11.2 µM [inhibitor, single point] | –
14 | Cn1cnc2nc(Cl)nc(Cl)c21 | inconclusive: 2.82 µM [inhibitor, full curve] | –
15 | Cc1cccc(C)c1OCC(O)CNC(C)(C)C (configuration not stated) | – | inactive: -6.96%
16 | O=C(Nc1cccc(C(F)(F)F)c1)Nc1ccc(N2CCCC2)c(S(=O)(=O)Nc2ccccc2Cl)c1 | inconclusive: 5.62 µM [inhibitor, partial curve] | –
17 | CCOC(=O)C1=C(c2ccccc2)NC(=O)NC1c1cc(OCC)c(O)c([N+](=O)[O-])c1 (configuration not stated) | inconclusive: 10 µM [inhibitor, single point] | –
18 | Cc1ccc2nc(-c3ccc(NC(=O)c4cccnc4)cc3)oc2c1 | inconclusive: 28.2 µM [inhibitor, single point] | –
19 | CC(=O)c1cnc2c(-c3cccc(Br)c3)cnn2c1C | – | inactive: -5.64%
20 | CN1CCN(c2cc3c(c4c2[nH]c2ccccc24)C(=O)CC(C)(C)C3)CC1 | inconclusive: 14.1 µM [inhibitor, single point] | –
21 | COc1ccccc1NC(=O)N1CCC(c2nc3cc(C)c(C)cc3[nH]2)CC1 | inconclusive: 1 µM [inhibitor, full curve, poor fit] | –
22 | CCOC(=O)N1CCN(c2nc3ccccc3nc2C(C#N)C(=O)NCCc2ccccc2)CC1 (configuration not stated) | – | inactive: 14%
23 | CCOC(=O)c1cnc2ccc(OCC)cc2c1N1CCN(c2ccccc2OC)CC1 | inconclusive: 22.4 µM [inhibitor, single point] | –

Row | SMILES | Potency | activity change, negative = inhibition
24 | N=c1n(CCN2CCCCC2)c2ccccc2n1CC(O)c1cccc(Br)c1 (configuration not stated) | inconclusive: 11.2 µM [inhibitor, partial curve, poor fit] | –
25 | Cc1c(Cl)cccc1NC(=S)N1CCc2ccccc2C1 | inconclusive: 31.6 µM [inhibitor, single point] | –
26 | CCN1C(=O)C2(c3ccccc31)c1c(oc3ccc(F)cc3c1=O)C(=O)N2CCCOC (configuration not stated) | – | inactive: -1.93%
27 | O=C(CSC1=Nc2ccccc2C2CC=NN12)Nc1ccc2c(c1)OCO2 (configuration not stated) | inconclusive: 28.2 µM [inhibitor, single point] | –
28 | CC(C)(C)OC(=O)N1CCC(c2c(C(=O)NCC3CCN(C4CCCC4)C3)cnn2-c2cccc(Cl)c2)CC1 (configuration not stated) | inconclusive: 28.2 µM [inhibitor, single point] | –
29 | O=c1cc[nH]c2c1ccc1cccnc12 | inconclusive: 0.501 µM [inhibitor, full curve, poor fit] | –
30 | Cc1c(Br)c([N+](=O)[O-])nn1CC(=O)Nc1ccc2nc3n(c(=O)c2c1)CCCC3 | – | inactive: -5.43%
31 | CCCC(=O)N(CCN(Cc1ccccc1)C(=O)CCC)Cc1ccccc1 | – | inactive: -23.8%
32 | CCOc1cccc(C(=O)NC(=S)Nc2ccc(Cl)cc2C(=O)O)c1 | – | inactive: -12.9%
33 | Cc1cccc(OCc2n[nH]c(=S)n2C2CCCCC2)c1 | inconclusive: 7.94 µM [inhibitor, partial curve] | –
34 | N#C/C(=C\c1ccccc1)C(=O)N1CCN(c2ccccc2F)CC1 | inconclusive: 28.2 µM [inhibitor, single point] | –
35 | CCOC(=O)c1ccc(NC(=O)CCNS(=O)(=O)c2cc(Br)cnc2N)cc1 | – | inactive: -8.97%
36 | CCN1CCN(c2cc(C)c3cc(NC(=O)c4cc(Cl)ccc4OC)ccc3n2)CC1 | inconclusive: 14.1 µM [inhibitor, single point] | –
37 | COc1ccc(S(=O)(=O)N2CCOCC2)cc1NC(=O)CSc1nnc2c(n1)[nH]c1ccccc12 | inconclusive: 28.2 µM [inhibitor, single point] | –
38 | COc1cc(/C=C2/S/C(=N/S(=O)(=O)c3ccccc3)NC2=O)c([N+](=O)[O-])cc1OC | – | inactive: 5.47%
39 | Cc1nc2ccccc2c(=O)n1/N=C/c1ccccc1Cl | – | inactive: 19%
40 | COc1c(C)cccc1C(=O)Nc1ccc(N2CCN(C(=O)c3ccccc3C)CC2)cc1 | inconclusive: 28.2 µM [inhibitor, single point] | –
41 | Cc1ccc(OCC(O)Cn2c(=N)n(CCN3CCCCC3)c3ccccc32)cc1 (configuration not stated) | inconclusive: 11.2 µM [inhibitor, single point] and inconclusive: 14.1 µM [inhibitor, single point] | –
42 | COc1ccc(C2C(C(=O)c3ccco3)=C(O)C(=O)N2c2nnc(C)s2)cc1OC (configuration not stated) | inconclusive: 1.78 µM [inhibitor, full curve, poor fit] | –
43 | CCOC(=O)c1c(C)n(-c2ccccc2)c2ccc(OC(=O)c3ccccc3NC(=O)C(C)(C)C)cc12 | inconclusive: 11.2 µM [inhibitor, single point] | –
44 | COc1cc(CNCCc2ccccc2F)ccc1OCc1ccc(Cl)nc1 | inconclusive: 10 µM [inhibitor, single point] | –
45 | CCOC(=O)[C@@H]1[C@H]2COc3ccc(Br)cc3[C@@H]2N2C(=O)N(c3ccc(OC)cc3)C(=O)[C@]12C | inconclusive: 28.2 µM [inhibitor, single point] | –
46 | CC1CCN(CC(=O)Nc2cccc(C(=O)Nc3cccc(C(F)(F)F)c3)c2)CC1 | inconclusive: 11.2 µM [inhibitor, single point] | –

Row | SMILES | Potency | activity change, negative = inhibition
47 | C/C(=N/NC(=O)c1ccc(Br)o1)c1cccc(NC(=O)c2ccc(F)cc2)c1 | inconclusive: 17.8 µM [inhibitor, single point] | –
48 | Cc1ccc(C(C[N+](=O)[O-])Sc2ccc(N)cc2)cc1 (configuration not stated) | inconclusive: 28.2 µM [inhibitor, single point] | –
49 | COc1cccc(-c2nn(-c3ccccc3)cc2CNC(C)Cn2cncn2)c1 (configuration not stated) | inconclusive: 28.2 µM [inhibitor, single point] | –
50 | COc1ccc(NCc2ccc([N+](=O)[O-])s2)c(OC)c1 | inconclusive: 28.2 µM [inhibitor, single point] | –
51 | CCn1c(SCC(=O)N2CCc3ccccc32)nnc1-c1c[nH]c2ccccc12 | – | inactive: -7.58%
52 | CC(C)(C)OC(=O)N(CCc1ccccc1)Cc1ccc(OCc2cccc(NC(=O)C3CCC3)c2)cc1 | – | inactive: 1.37%
53 | CCC(C)n1c(/C=C/c2ccccc2)nc2ccccc21 (configuration not stated) | inconclusive: 28.2 µM [inhibitor, single point] | –
54 | COc1ccc2c(c1)c(=O)c(C(=O)c1ccccc1)cn2Cc1ccccc1 | inconclusive: 20 µM [inhibitor, single point] | –
55 | CCCCNC(=O)c1c(CSc2ccc(Cl)cc2)noc1C(=O)NCc1ccccc1 | – | inactive: -0.698%
56 | COC(=O)c1ccccc1NC(=O)C1=C(C)C(=O)OC12CCC(C)CC2 (configuration not stated) | – | inactive: 7.11%
57 | COc1ccc(-c2nc(SCC(=O)Nc3ccc4c(c3)OCCO4)c(-c3ccccc3)[nH]2)cc1 | inconclusive: 11.2 µM [inhibitor, partial curve, poor fit] | –
58 | COc1ccccc1Cn1cc(C(=O)c2ccc(C)cc2)c(=O)c2cc(F)cc(F)c21 | – | inactive: 3%
59 | CC1CCCN(CC(O)COc2ccc(-c3ccccc3)cc2)C1 (configuration not stated) | inconclusive: 28.2 µM [inhibitor, single point] | –
60 | Cc1ccc(-n2nc3c(=O)n(CCCC(=O)NC(C)c4ccccc4)nc(C)c3c2C)cc1 (configuration not stated) | – | inactive: 7.92%
61 | Cc1c(/C=N/NC(=O)c2ccccc2O)c2ccccn2c1C(=O)c1ccc(F)cc1 | inconclusive: 12.6 µM [inhibitor, single point] | –
62 | Cc1c(/C=N/NC(=O)c2cc(C(C)(C)C)[nH]n2)c2ccccc2n1C | inconclusive: 2.82 µM [inhibitor, full curve, poor fit] | –
63 | CCCCC(C(=O)NC(C)(C)C)N(Cc1ccccc1Cl)C(=O)c1snc(C(N)=O)c1N (configuration not stated) | inconclusive: 10 µM [inhibitor, single point] | –
64 | COc1ccc(S(=O)(=O)NC(C)C(=O)N2CCCC2)cc1C (configuration not stated) | – | inactive: 13.8%
65 | O=C(O)c1ccccc1S(=O)(=O)Cc1ccccc1 | – | inactive: 8.66%
66 | Cc1cccc(C(=O)NNC(=S)NC(=O)c2cccs2)c1 | inconclusive: 20 µM [inhibitor, single point] | –
67 | COc1cccc(/C=N/Nc2cc(Cl)nc(C)n2)c1O | inconclusive: 12.6 µM [inhibitor, partial curve] | –
